Hit rate of the full screen: of about 310,000 compounds, about 14,000 (4.5%) showed an effect of 50% or more. The effect is printed as a negative number. This is one part of the list.
target: human ether-à-go-go-related gene (hERG) potassium channel (human, UniProt Q12809); assay: primary screen, population patch clamp on CHO cells stably expressing hERG
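Further: peak tail current of the secondary pulse compared with the same well before compound.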

Sequence of human ether-à-go-go-related gene (hERG) potassium channel (Q12809 whole entry, looked up): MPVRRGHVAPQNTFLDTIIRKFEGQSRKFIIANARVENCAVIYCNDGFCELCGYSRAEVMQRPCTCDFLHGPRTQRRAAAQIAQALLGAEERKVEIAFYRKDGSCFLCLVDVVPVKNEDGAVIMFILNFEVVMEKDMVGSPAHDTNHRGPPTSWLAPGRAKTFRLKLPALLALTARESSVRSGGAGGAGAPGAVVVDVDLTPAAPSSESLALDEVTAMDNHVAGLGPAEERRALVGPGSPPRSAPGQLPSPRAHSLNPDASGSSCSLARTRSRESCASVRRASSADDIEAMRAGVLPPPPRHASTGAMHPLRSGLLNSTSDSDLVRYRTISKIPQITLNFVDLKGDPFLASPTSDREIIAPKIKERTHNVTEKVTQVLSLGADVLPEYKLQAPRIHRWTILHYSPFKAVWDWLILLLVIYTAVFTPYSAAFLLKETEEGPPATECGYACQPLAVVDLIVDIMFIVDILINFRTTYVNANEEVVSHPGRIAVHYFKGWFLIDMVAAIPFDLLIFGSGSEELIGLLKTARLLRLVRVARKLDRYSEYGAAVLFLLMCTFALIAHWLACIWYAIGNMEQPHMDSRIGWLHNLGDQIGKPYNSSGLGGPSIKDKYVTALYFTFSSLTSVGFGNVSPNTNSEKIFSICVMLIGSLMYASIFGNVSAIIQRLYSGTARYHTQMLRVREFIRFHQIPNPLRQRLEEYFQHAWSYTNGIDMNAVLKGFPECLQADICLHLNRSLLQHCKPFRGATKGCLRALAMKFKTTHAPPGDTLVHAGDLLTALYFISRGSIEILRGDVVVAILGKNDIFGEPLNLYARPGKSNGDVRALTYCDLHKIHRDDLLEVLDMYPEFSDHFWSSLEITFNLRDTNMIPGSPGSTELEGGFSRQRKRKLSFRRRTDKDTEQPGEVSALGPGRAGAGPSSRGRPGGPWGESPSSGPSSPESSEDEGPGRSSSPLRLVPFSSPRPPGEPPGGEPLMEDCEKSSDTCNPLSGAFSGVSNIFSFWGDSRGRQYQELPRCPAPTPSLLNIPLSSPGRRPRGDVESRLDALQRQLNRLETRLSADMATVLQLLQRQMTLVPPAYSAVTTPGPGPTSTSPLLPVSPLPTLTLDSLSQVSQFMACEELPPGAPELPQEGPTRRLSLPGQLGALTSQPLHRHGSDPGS

Compound	hERG current change (%, negative = inhibition) at 10uM [%]
O=c1c2sccc2nc(SCc2cc(=O)n3cc(Cl)ccc3n2)n1Cc1ccccn1	-26.2
COc1ccc(N2CCN(C(=O)CCNS(=O)(=O)c3ccc(Br)s3)CC2)cc1	-50.6
CC(=O)NCCOc1nc(N(C)C)nc(N2CCOCC2)n1	3.54
CCOc1ccc(C(=O)Nc2ccc(NC(=O)c3cccs3)cc2)cc1[N+](=O)[O-]	-9.28
CCOC(=O)/C(C(N)=NCC(C)C)=C(/O)c1ccccc1	-3.05
O=S1(=O)C=C(SCc2cccc(Cl)c2)Nc2ccccc21	-8.09
CC1=NN(Cc2c[nH]c3ccccc23)C(C)(C)C1	-18
CCOc1ncccc1C(=O)OCc1cn2cc(Cl)ccc2n1	-30.3
O=C(CN1C(=O)C2C3CCC(C3)C2C1=O)N1CCN(Cc2ccccc2)CC1 (stereo not drawn)	-7.83
NS(=O)(=O)c1cc(C(=O)O)cc(N2CCCC2)c1Oc1ccccc1	0.0774
Cl.Fc1ccccc1COc1ccc(Br)cc1CNCc1cccnc1	-70.2
CCOC(=O)c1ccc(N(C(=O)c2ccco2)C(C(=O)NC2CCCC2)c2ccncc2)cc1 (stereo not drawn)	-43
COc1ccc(OC)c(NC(=O)c2ccc3c(c2)C(=O)N(c2ccc(OC(C)=O)cc2)C3=O)c1	13.6
Cn1cc(CN2C[C@H]3CC[C@H]2C3)c(-c2ccccc2F)n1	7.1
Nn1c(COc2ccccc2F)nnc1SCC(=O)NC1CC1	0.387
O=C(Nc1nnc(-c2cccs2)o1)c1cccc(C(F)(F)F)c1	-0.761
CCN(CC)CCOC(=O)c1c(C)oc2ccc(OC)cc12.Cl	-36.6
Cc1cc(OCC(=O)N(Cc2cccs2)C2CCS(=O)(=O)C2)ccc1Cl (stereo not drawn)	-42
CCCOc1ccccc1-c1nc2n[nH]nc2c(=O)[nH]1	-56.3
COc1ccc(C(=O)C2C(c3ccc(-c4ccccc4[N+](=O)[O-])o3)NC(=O)NC2(O)C(F)(F)F)cc1 (stereo not drawn)	4.9
CC(C)OCCCNC(=O)c1ccc(Br)cc1	-8.3
CC(C)(C)N1CC(C(=O)Nc2cccc(Cl)c2Cl)CC1=O (stereo not drawn)	11.1

Compound	hERG current change (%, negative = inhibition) at 10uM [%]
CCOC(=O)c1sc(NC(C)=O)c(C(=O)OCC)c1C	-0.845
COc1ccc2ccc(Oc3ncccn3)cc2c1	-1.28
COc1ccc(/C=C/C(=O)O)cc1COc1ccccc1C	-11.2
COc1ccc(CN2C(=O)CN=C2Nc2cc(C)ccc2C)cc1.Cl	1.79
COc1ccc(C2NC(=O)C(C#N)=C(S)N2c2ccccc2)cc1OC (stereo not drawn)	10.2
Cn1c(NNC(=O)c2ccccc2F)cc(=O)n(C)c1=O	-1.49
C=CCOc1c(CCC)cc(CCC)cc1C(N)=O	-24.6
N#CCC(=N)N1CCN(c2ccccc2Cl)CC1	-18.4
COc1ccc(OC)c(-c2cc(C(=O)Nc3c(C)nn(Cc4ccccc4)c3C)no2)c1	-15.9
Cc1ccc(C(=O)N2CCN(Cc3ccc4c(c3)OCO4)CC2)o1	-26.7
Br.c1ccc(-c2cn3c4c(sc3n2)CCCC4)cc1	11.6
O=C(O)c1cc(-c2ccccc2)n(-c2ccccc2)n1	-3.77
Cc1ccc(N(C(C)C(=O)O)S(=O)(=O)c2c(C)[nH]c(=O)[nH]c2=O)cc1 (stereo not drawn)	12
CCOC(=O)c1c(C)nc2c(C)cccn12	-6.9
O=C(NNC(=O)C12CC3CC(CC(C3)C1)C2)c1ccncc1	13.2
Cc1ccc2c(c1)C(O)(c1c(C)[nH]c3ccccc13)C(=O)N2 (stereo not drawn)	25.4
Cc1ccsc1C(=CCCN1CCC[C@@H](C(=O)O)C1)c1sccc1C.Cl	-5.13
COc1ccc([C@H]2CC(=O)C=C(/C=C/Cc3ccccc3)C2)cc1	-2.89
O=C(NCc1ccco1)C(C(=O)c1ccc(F)cc1)n1ccccc1=O (stereo not drawn)	2.06
CCOC(=O)c1ccccc1OCc1cc(/C=N/NC(=O)c2ccncc2)ccc1OC	9.72
COCCn1c(SCCN2CCOCC2)nc2c1c(=O)[nH]c(=O)n2C	14.2
O=Cc1c(-c2ccc(Cl)cc2)oc2ccc(O)cc12	-3.37

Compound	hERG current change (%, negative = inhibition) at 10uM [%]
Cc1ccc(S(=O)(=O)NCCc2nnc3ccc(SCC(=O)Nc4nc(C)cs4)nn23)cc1	-2.23
O=c1c2cc([N+](=O)[O-])ccc2nc2n1CCCC2	4.82
Cc1ccc(N=C2N=C(N)c3ccccc32)cc1C	-10
COC(=O)C1=C(c2ccccc2OCc2ccccc2)C[C@@H]2CC[C@H]1N2C(=O)NCc1ccc(OC)cc1	-6.18
Cc1ccc(C)c(OCC(=O)N/N=C/c2c(C)nn(-c3ccccc3)c2Cl)c1	13.4
Cc1ccc(/C=N/Nc2ccc(C(=O)O)cc2)s1.O=S(=O)(O)O	8.07
O=C(Nc1ccc2c(c1)OCO2)N1CCN(C(=O)C2CCCO2)CC1 (stereo not drawn)	-6.35
O=S(Cc1cc(Oc2ccccc2)nc(-c2ccccc2)n1)c1ccccc1 (stereo not drawn)	-7.69
CS(=O)(=O)Nc1ccc(C2=NN(S(=O)(=O)c3ccccc3)C(c3cccs3)C2)cc1 (stereo not drawn)	-70.3
CCOC(=O)C1CCN(c2c(NC3CCCCCCC3)c(=O)c2=O)CC1	-14.4
C=CCn1c(-c2cccn(Cc3cccc(Cl)c3)c2=O)n[nH]c1=S	6.96
Cc1ccc(NC(=O)CNc2ccccc2N2CCCC2=O)cc1S(=O)(=O)N1CCCCC1	-24.4
Cc1ccc(S(=O)(=O)N2CCOCC2)cc1NC(=O)COC(=O)C1COc2ccccc2O1 (stereo not drawn)	-1.8
COc1cccc2c(=O)cc(C)n(CC(=O)Nc3ccc(C)c(C)c3)c12	-5.88
CCn1c(=O)c(C(=O)NCc2ccc(Cl)cc2)c(O)c2ccccc21	22.2
CSCCC1NC2(C(=O)Nc3c(C)cc(Cl)cc32)[C@@H]2C(=O)N(C3CCCC3)C(=O)[C@H]12 (stereo partly drawn)	-4.61
CCOc1ccccc1N1CCN(C(=O)Nc2cccc(Cl)c2)CC1	-16
Cc1ccc2c(c1)C1CN(C)CCC1N2C(=O)c1ccc(Br)o1 (stereo not drawn)	-38
Cc1ccc(S(=O)(=O)N2CCN(C(=O)COC(=O)Cc3ccccc3)CC2)c(C)c1	-16.4
COc1ccccc1C1=Nc2cccc3cccc(c23)N1	-4.52
CC(NC(=O)c1ccccc1)C(=O)NNC(=O)c1ccccc1Cl (stereo not drawn)	-3.51
CCOC(=O)N1CCN(C(=O)c2ccc(S(=O)(=O)c3ccc(C)cc3)c(NC(C)=O)c2)CC1	8.01

Compound	hERG current change (%, negative = inhibition) at 10uM [%]
Cc1ccc(C)c(NC(=S)NC(NC(=O)OCc2ccccc2)C(Cl)(Cl)Cl)c1 (stereo not drawn)	1.83
CCOc1ccc(CN(C)C(=O)CNC(=O)c2cc(OC)c(OC)c(OC)c2)cc1	9.02
C/C=C(\C)CN1CCC(n2nccc2NC(=O)c2ccc(OC)cc2)CC1	2.92
Cc1n[nH]c(=S)n1/N=C/c1ccccc1OCc1ccc(Cl)cc1	1.76
O=C(c1cccs1)N1CCC(c2nc3c(nnn3Cc3cccc(Cl)c3)c(=O)[nH]2)CC1	-21.4
CC(C)(C)OC(=O)NCCCC1=CC2=CC(=O)C(C)(OC(=O)C3CCCC3)C(=O)C2=CO1 (stereo not drawn)	6.13
Cc1oc2c(c1C(=O)Nc1ccc(C(=O)O)cc1)CCCC2	-8.8
Cc1c(C)c(C)c(S(=O)(=O)N2CCC3(CC2)OCCO3)c(C)c1C	-0.826
Cc1ccccc1NC(=O)CCc1nnc2ccc(N3CCC4(CC3)OCCO4)nn12	8.74
CC(c1nnc(SCC(=O)N(C)C2CCS(=O)(=O)C2)n1-c1ccccc1)N(C)C (stereo not drawn)	4.64
Cc1ccc(NC(=O)c2ccc(Cl)c(N3C(=O)CCC3=O)c2)cc1	10.1
CCOC(=O)COc1cc2oc(=O)cc(C)c2cc1[N+](=O)[O-]	-13.5
Cc1ccc(Cl)cc1NC(=O)COC(=O)c1ccccc1O	1.9
CC(=O)N(C)c1ccc(OCC(O)Cn2c3ccc(Cl)cc3c3cc(Cl)ccc32)cc1 (stereo not drawn)	8.65
COc1ccc(C(=O)Nc2cccnc2Sc2ccc(Cl)cc2)cc1	5.39
COc1cccc(CNS(=O)(=O)c2c(C)nc3scc(C)n3c2=O)c1	3.98
CCOC(=O)c1ccc(CS(=O)c2ccc(Cl)cc2)o1 (stereo not drawn)	-3.47
Fc1ccccc1C1c2[nH]c3ccccc3c2CCN1Cc1ccoc1 (stereo not drawn)	-51.7
O=C(Cc1csc(-c2ccccc2)n1)NCc1ccccc1F	-9.43
O=C(/C=C/c1ccc[nH]1)c1ccc(F)cc1	23
CN(C)S(=O)(=O)c1ccc(NC(=O)c2cccnc2)cc1	6.81
